Laboratory results taken from article PMC6919601, “Identification of Plasmodium dipeptidyl aminopeptidase allosteric inhibitors by high throughput screening” (PLoS ONE, 2019).
Hit rate of the full screen: of about 110,000 compounds, about 230 (0.21%) showed an effect of 50% or more. The list shows a part of the results.
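Note: 30 min substrate incubation versus DMSO and 10 µM JCP410 controls.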

What follows are compounds tested against DPAP1 (Plasmodium falciparum, UniProt Q8IIJ9) (assay: primary screen, percent inhibition; read by cleavage of a fluorogenic dipeptide substrate; higher = more effect of the substance).
DPAP1, sequence (Q8IIJ9 whole entry, looked up): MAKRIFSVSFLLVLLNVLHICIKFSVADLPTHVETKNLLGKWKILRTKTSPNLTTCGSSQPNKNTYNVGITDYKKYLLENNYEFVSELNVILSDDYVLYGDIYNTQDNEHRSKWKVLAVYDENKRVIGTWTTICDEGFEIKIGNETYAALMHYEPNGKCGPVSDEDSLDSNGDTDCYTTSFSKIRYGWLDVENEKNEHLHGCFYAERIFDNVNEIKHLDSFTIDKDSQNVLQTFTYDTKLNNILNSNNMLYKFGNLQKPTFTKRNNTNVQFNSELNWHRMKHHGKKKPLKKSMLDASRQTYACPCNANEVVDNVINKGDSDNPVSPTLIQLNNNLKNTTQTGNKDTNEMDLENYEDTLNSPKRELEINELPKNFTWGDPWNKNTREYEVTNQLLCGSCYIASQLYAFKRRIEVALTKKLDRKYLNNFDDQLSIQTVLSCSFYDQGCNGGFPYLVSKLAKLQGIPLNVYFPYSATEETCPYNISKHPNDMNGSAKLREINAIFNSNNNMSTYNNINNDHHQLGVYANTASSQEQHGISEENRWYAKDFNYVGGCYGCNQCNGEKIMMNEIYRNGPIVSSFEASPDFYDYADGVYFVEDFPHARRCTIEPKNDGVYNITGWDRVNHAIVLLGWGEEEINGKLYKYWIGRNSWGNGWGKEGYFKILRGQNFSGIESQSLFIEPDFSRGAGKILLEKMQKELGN
Set-up: species or system P. falciparum D10 trophozoite lysates; single well
`Cn1cnc2c(NCc3ccco3)ncnc21` was tested, and the “% Inhibition @ 10 uM” value was 0.221%.
With `CCOC(=O)c1c(-c2ccc(Cl)cc2)nn2c1NCN(Cc1cc(OC)ccc1OC)C2` the “% Inhibition @ 10 uM” value was -1.08%.
`CCOc1c(Cl)cc(C(=O)Nc2cccc(C(=O)O)c2)cc1Cl` was tested, and the “% Inhibition @ 10 uM” value was 5.44%.
For `COc1ccc(CCNc2oc(COc3ccccc3)nc2C#N)cc1`, the “% Inhibition @ 10 uM” value was -5.63%.
With `CC(=O)c1cccc(NC(=O)c2c(-c3ccccc3Cl)noc2C)c1` the “% Inhibition @ 10 uM” value was -7%.
With `Brc1ccc(CN2CCN(c3ccccn3)CC2)s1` the “% Inhibition @ 10 uM” value was -8.39%.
With `O=C1CC(=O)N(c2ccc(F)cc2)C(=O)N1` the “% Inhibition @ 10 uM” value was -2.18%.
`CC(C)(C)c1ccc(OCCCN2CCOCC2)cc1` was tested, and the “% Inhibition @ 10 uM” value was 1.35%.
For `O=S(=O)(c1ccc(-c2csc(Nc3ccc(Cl)cc3)n2)cc1)N1CCCCC1`, the “% Inhibition @ 10 uM” value was -4.46%.
For `O=C(c1cnn(-c2ccccc2)c1-n1cccc1)N1CCN(c2ccccn2)CC1`, the “% Inhibition @ 10 uM” value was 6.46%.
With `CCCCCC1CCC(c2ccc(-c3nc(-c4ccc(C5CCC(CCC)CC5)cc4)no3)cc2)CC1` (stereo not shown) the “% Inhibition @ 10 uM” value was -5.96%.
For `Cc1nn(-c2cc(Oc3ccccc3)nc(-c3ccccc3)n2)c(N)c1C#N`, the “% Inhibition @ 10 uM” value was 0.851%.
With `CCOC(=O)c1c(C)[nH]c(C(=O)CSc2ccccc2)c1C` the “% Inhibition @ 10 uM” value was -9.24%.
In the case of `O=C(CCc1cn(Cc2ccc(Cl)cc2)c2ccccc12)NCCCN1CCOCC1`, the “% Inhibition @ 10 uM” value was -4.34%.
For `CCOC(=O)C1CCCCN1C1CCN(Cc2ccccc2)CC1` (stereo not shown), the “% Inhibition @ 10 uM” value was 3.19%.
`CC(C)CCNC(=O)C(=O)NCc1ccc2c(c1)OCO2` was tested, and the “% Inhibition @ 10 uM” value was -5.01%.
For `Cc1cc(C(=O)NCCCSC2CCCCC2)n(-c2ccccc2)n1`, the “% Inhibition @ 10 uM” value was 3.19%.
`CC1=C(C(=O)Nc2cccc(C)n2)C(c2ccccc2C(F)(F)F)C2=C(O)CC(C)(C)CC2=N1` (stereo not shown) was tested, and the “% Inhibition @ 10 uM” value was -6.6%.
In the case of `CC(C)CCNC(=O)C(NS(=O)(=O)c1cccc2nsnc12)C(C)C` (stereo not shown), the “% Inhibition @ 10 uM” value was -0.685%.
With `COc1ccc(Cl)cc1NC(=O)CN(C)S(=O)(=O)c1ccc(OC)c(OC)c1` the “% Inhibition @ 10 uM” value was -2.29%.
With `Fc1ccc(CSc2nc(NCc3ccco3)c3ccccc3n2)cc1` the “% Inhibition @ 10 uM” value was -7.41%.
For `O=C(NCC1CCCO1)c1ccc(Br)cc1` (stereo not shown), the “% Inhibition @ 10 uM” value was -1.41%.
For `Cc1cc(Cl)c(OCCOCCN2CCNCC2)c(Cl)c1`, the “% Inhibition @ 10 uM” value was -12.3%.
`COc1ccccc1N(CC(=O)NCc1ccc(Cl)cc1Cl)S(C)(=O)=O` was tested, and the “% Inhibition @ 10 uM” value was -1.74%.
With `COc1ccc(C2C(C(=O)Nc3ccc(Cl)cc3)=C(C)Nc3nc(CCCO)nn32)c(OC)c1` (stereo not shown) the “% Inhibition @ 10 uM” value was 0.528%.
`COc1cc(/C=C2/C=C(c3ccc4ccccc4c3)OC2=O)ccc1O` was tested, and the “% Inhibition @ 10 uM” value was 7.87%.
`Cc1ccc(-c2csc(Nc3ccc(Br)cc3)n2)cc1` was tested, and the “% Inhibition @ 10 uM” value was -0.771%.
For `CC1=C(C(=O)Nc2ccccc2C)C(c2ccc(Br)cc2)C2=C(O)CCCC2=N1` (stereo not shown), the “% Inhibition @ 10 uM” value was 2.38%.
In the case of `O=C(O)c1ccc(-c2ccc(Cl)cc2Cl)o1`, the “% Inhibition @ 10 uM” value was 23.5%.
In the case of `Cc1ccc(S(=O)(=O)N2CCOCC2)c(C)c1N1CCCC1=O`, the “% Inhibition @ 10 uM” value was -1.96%.
With `CCOC(=O)N1CCN(C(=O)CCSc2ccccc2)CC1` the “% Inhibition @ 10 uM” value was -7.14%.
With `COc1cccc(Nc2nc(NCC3CCCO3)c3ccccc3n2)c1` (stereo not shown) the “% Inhibition @ 10 uM” value was -4.49%.
With `O=C(Nc1ccc(S(=O)(=O)N2CCCCCC2)cc1)c1ccccc1Br` the “% Inhibition @ 10 uM” value was -5.15%.
With `O=C1c2ccccc2C(=O)N1Cc1nc2c3c4c(sc3ncn2n1)CCCC4` the “% Inhibition @ 10 uM” value was 4.57%.
`CCCOc1ccc(Cn2c(=O)oc3ccc(C)cc32)cc1OC` was tested, and the “% Inhibition @ 10 uM” value was -0.759%.
In the case of `C(=C1/NC2(CCCCC2)Cc2ccccc21)/c1ccc2ccccc2n1`, the “% Inhibition @ 10 uM” value was -1.32%.
With `COCC(C)NC(=O)c1cc2c(=O)n3cccc(C)c3nc2n1C` (stereo not shown) the “% Inhibition @ 10 uM” value was 1.68%.
For `Cc1cc(C)cc(OCc2ccc(C(=O)O)o2)c1`, the “% Inhibition @ 10 uM” value was -4.05%.
With `CCOC(=O)N1CCC(/N=c2\c(O)c(O)\c2=N/CCN2CCN(Cc3ccccc3)CC2)CC1` the “% Inhibition @ 10 uM” value was -3.21%.
With `COc1cccc(OCC(O)CN2CCC(CN3C(=O)c4cccc5cccc(c45)C3=O)CC2)c1` (stereo not shown) the “% Inhibition @ 10 uM” value was 4.47%.
In the case of `O=C(NCCCN1CCCC1)C12CC3CC(CC(C3)C1)C2`, the “% Inhibition @ 10 uM” value was 0.266%.
For `COc1ccc(C(=O)Nc2nnc(SCc3cc(=O)n4oc(C)cc4n3)s2)cc1`, the “% Inhibition @ 10 uM” value was 0.747%.
`Cc1nn(C(C)C(=O)NCCN2CCOCC2)c(=O)c2nn(-c3ccccc3)c(C)c12` (stereo not shown) was tested, and the “% Inhibition @ 10 uM” value was 2.31%.
With `COCCCNC(=O)c1cc(-c2ccc(C)cc2)nc2ccc(Br)cc12` the “% Inhibition @ 10 uM” value was -4.59%.
In the case of `Clc1ccccc1N1CCN(Cc2ccoc2)CC1`, the “% Inhibition @ 10 uM” value was -8.39%.
`O=C(O)CCC(=O)Nc1sc2c(c1C(=O)Nc1cccc3ccccc13)CCCC2` was tested, and the “% Inhibition @ 10 uM” value was 17.5%.
For `CCOC(=O)CNC(=O)C1=C(C(=O)O)CCCC1`, the “% Inhibition @ 10 uM” value was -8.11%.
`Cc1c(C(=O)NCCCN2CCN(C)CC2)oc2c1-c1nn(Cc3cccc(Cl)c3)cc1CC2` was tested, and the “% Inhibition @ 10 uM” value was 4.33%.
In the case of `Cc1c(CNCCc2c[nH]c3ccccc23)c(C(=O)O)c(C)n1Cc1cccc(Cl)c1`, the “% Inhibition @ 10 uM” value was -1.92%.
